Experimental data published in article PMC12136788.
Numbering of substitutions follows the chain as printed. The list shows a part of the results.

B1: chr9:95040541:95040542:-_ENSG00000196305_ENST00000443024|hu_hu|FALSE|FALSE (ssRNA)
RNA: GGGAGUUCUACAGUCCGACGAUCAAGGAUCUCAUAGUCACUCUCCAAUUUAUAGAGGGCUGACAAUCUGGCUUCCAUUAAAAUGAGUAAUCGUCCUCUGGCAACAUCUUUAAUUUUCACAUAUUGCAUUUCUGGAUUAACACACAACAGAGGAUUGAGCAUCA
B2: chr8:104447970:104447971:+_ENSG00000164934_ENST00000297579|hu_hu|hu_hu_hu_mus_False|58_88 (ssRNA)
RNA: GGGAGUUCUACAGUCCGACGAUCAUACACUUCCCUGCUUCGGCUCUUGUCUACAGGAAAGAUUCUAAUAGACUUAUCGAAACUAGCAGACACAAAUUCCUUCCCAGUGGGAGAGUAGUCCACAUCAAGUACUGCAGACACGUGCAACAGAGGAUUGAGCAUCA
B3: chr4:95690885:95690886:+_ENSMUSG00000028572_ENSMUST00000156910|mus_mus|mus_mus_mus_hu_False|68_68 (ssRNA)
RNA: GGGAGUUCUACAGUCCGACGAUCUUUAGAAAAUGUUAAAUACCAUGCUAAAAUAUUUUCAAAGGCUAGUCUUAUUUUACCAGAAGUCACAGGCAAGCAGACACUACAAGAAUAUAUGAAAAUGAAACUCAACAAUAUAACUGUCAACAGAGGAUUGAGCAUCA
B4: chr8:104447970:104447971:+_ENSG00000164934_ENST00000297579|hu_hu|hu_hu_hu_mus_False|58_68 (ssRNA)
RNA: B2 RNA with U51C, C72U
B5: chr6:89793807:89793808:+_ENSG00000146278_ENST00000336032|hu_hu|FALSE|FALSE (ssRNA)
RNA: GGGAGUUCUACAGUCCGACGAUCGCUUCCCAUCCAGUGACUAGGAGGCUUUGGAAGAACACUAGGAGAAGGUGGAUCACUAAACUUUGCCCCAGCAUAAUUUUCCUUUUGGCUCACUUCAGUUAGAAAUGCUGAUUUCUUCAACAACAGAGGAUUGAGCAUCA
B6: 48061950_48063070_790_CDS_ENSG00000138081_ENST00000403359|human|control|control (ssRNA)
RNA: GGGAGUUCUACAGUCCGACGAUCUCUUGCAGGGUUACUGUAGAAAUGUUCAGCAAAUCCUGGCUUUACAUGUGCACCUUUAUACAACUGCUGGAAACUCUCUUUCCAGGGAUUUGGAUGUUCAUACUCUUCUGGAUUAAUCUGCAACAGAGGAUUGAGCAUCA
B7: 153061612_153061732_387_CDS_ENSMUSG00000051413_ENSMUST00000056924|mouse|control|control (ssRNA)
RNA: GGGAGUUCUACAGUCCGACGAUCGGGAAGGCUGUGAGGCCUUAGCUUCUCCCCAUUUGAAAAUGGUGUCCCCGAGAUUUCACAUUGGCACUUCACUUGACUCUCUGCCUCCCGGCCCCGAGGCCUGGGAACUAGUUUCCAGCCCAACAGAGGAUUGAGCAUCA
B8: chr17:25041749:25041750:-_ENSMUSG00000024163_ENSMUST00000117509|mus_mus|FALSE|FALSE (ssRNA)
RNA: GGGAGUUCUACAGUCCGACGAUCAGAUGGGUAGGAUCGUUUGGCCGGAGGGGGGCUAGAUGAGGAGCUGAAGAGGCGACUAAAGAACUGCCAGAUGGUGGACUUCUUCUUCUCCUGGACAGAUGGGUGUUCCCUUGAUGCUCUCAACAGAGGAUUGAGCAUCA
B9: chr1:163117127:163117128:-_ENSG00000143248_ENST00000313961|hu_mus|hu_hu_hu_mus_False|58_68 (ssRNA)
RNA: GGGAGUUCUACAGUCCGACGAUCUGCUACAAAGGAUGUAACUCAACUCACAGGGCAACUUUUGGAAGCCUGGCUAAAUUACUACUUGAUUAGCUCCUUAUAAAAUUCAGAGCGCACAAAGCGGGGCAGAGAAUCCUUCUCCAUCAACAGAGGAUUGAGCAUCA
B10: 73052251_73060362_2799_CDS_ENSMUSG00000022607_ENSMUST00000110036|mouse|control|control (ssRNA)
RNA: GGGAGUUCUACAGUCCGACGAUCCCCGUCUUCCCUGUCGAUGCUGCCUCGAGAGAGCCUCACAUCAGGUUUCAGGAAUCGCUCUUCCUUCUCCAGCCAGCGCUGGUCUUCUUCCAUUUCCUGCUGCUGUCGGAUUAGCCGCUCCAACAGAGGAUUGAGCAUCA
B11: chr8:104447970:104447971:+_ENSG00000164934_ENST00000297579|hu_hu|hu_hu_hu_mus_False|48_88 (ssRNA)
RNA: B2 RNA with G78A, A81G, A84G, U96C
B12: chr7:108143013:108143014:-_ENSG00000135241_ENST00000257694|hu_hu|motif|central (ssRNA)
RNA: GGGAGUUCUACAGUCCGACGAUCGAGAAUUCGGAUUCCUCUCCCUUUCACUGGAUCCACAUAGCCAAUUAGGGCCAAAAUUUCUCGGACUGCAGCCUGAAGAGUUUCAUCCUUAAUUUGUCUCAGUCGUAAUAAAUAUGGAAUCAACAGAGGAUUGAGCAUCA
B13: chr7:149838571:149838572:-_ENSMUSG00000048583_ENSMUST00000000033|mus_hu|FALSE|FALSE (ssRNA)
RNA: GGGAGUUCUACAGUCCGACGAUCAUGUCUGCUCAGCUACCGCCAUCUCCAAUGUGGCCAAACUCCUUCCUCACUCUGGCUGGGCCAACACACAGUAAGUAAGGUGUAUCGGGAAUGGGUGGGGUAUGGGGAGCAUCGUGGCUCCAACAGAGGAUUGAGCAUCA
B14: 29316970_29322583_805_CDS_ENSMUSG00000029767_ENSMUST00000031779|mouse|control|control (ssRNA)
RNA: GGGAGUUCUACAGUCCGACGAUCUUCCUUGUCCAUCUUCCCAUCCCGGUUCUUAUCUCGAAACUCCACGAACUGUUCUCGCUCUGUCUUCACCCACUCUGGCUCAUCAGCAUUCCCAUCAUGACUGUACAUGUCACCAAUGUACAACAGAGGAUUGAGCAUCA
B15: 34926277_34926397_4828_CDS_ENSG00000159140_ENST00000381679|human|control|control (ssRNA)
RNA: GGGAGUUCUACAGUCCGACGAUCGAGAGUAGAUGCUGUGGUAAAUUCAAUACCCUUACUAGUUCCUGUUGCAUCAGGUUCCAGAGCAAAAGGACCAGUAGAAGAUAGAGUUUCUCCUGCAUCAGCUUCACUAACACCAGGGUACAACAGAGGAUUGAGCAUCA
B16: chr17:57763070:57763071:+_ENSG00000141367_ENST00000269122|hu_hu|FALSE|FALSE (ssRNA)
RNA: GGGAGUUCUACAGUCCGACGAUCGGCAAAAUCCAUGAUAUUGUGCCUCCAUGCAGUUUCUAGGACGACAUCUGGCCUUAAAAGAUCGUAACAGGUAAACAGACAAGCUCCAAAGCACUCUCUUUUUUCUUCCUGCAAAAACCACAACAGAGGAUUGAGCAUCA
B17: chr19:38862730:38862731:-_ENSMUSG00000024999_ENSMUST00000025963|mus_mus|motif|central (ssRNA)
RNA: GGGAGUUCUACAGUCCGACGAUCUUUGUAAGUCAUUUCUACAAUGAUAAUAGCUAUUAUAUAAAAUAGUUCUUUAUAACGGUUUAUAAACAUAUACAGUUUUUAUCUGUAAGAAUUUAAGGUGGGCGGUGGUGGCGCACGUCUCAACAGAGGAUUGAGCAUCA
B18: chr3:132387698:132387699:+_ENSG00000081307_ENST00000264991|hu_hu|FALSE|FALSE (ssRNA)
RNA: GGGAGUUCUACAGUCCGACGAUCUUGAACUUUACUUAAUCCUGCUUGAUGAGGUUGGAAGAAAAGUCUAUUCAUAUUGGCUAGUUCCACCUUGUCAUAAUCAAAGAGUAGCAACUUACCAAUGCCACAUCUUGUCAGCAUUUCCAACAGAGGAUUGAGCAUCA
B19: chr4:25749455:25749456:-_ENSG00000091490_ENST00000264868|hu_hu|hu_hu_hu_mus_False|8_48 (ssRNA)
RNA: GGGAGUUCUACAGUCCGACGAUCGCACUAUGACCUCUAGAAAAAUCCACAGGGGGAAAAAAUGUAAACCAAUGUACAAUGUUAUCGCCCUCCCUGCGUGUGGAGUGUUUGUCUCAAGGCUCCUUCUUGCCUUAUAAUUUGGGACAACAGAGGAUUGAGCAUCA
B20: chr1:247070963:247070964:-_ENSG00000153207_ENST00000391829|hu_mus|FALSE|FALSE (ssRNA)
RNA: GGGAGUUCUACAGUCCGACGAUCCUGAUUUGUCCUGUUGAUGUAACUCAGAGUAGAAAUGGCUACUCCCAAUGGGCUUACUAACUGGAAGCACAGGUGGCGCCCCUCUCUCAUCACUCUCUCUCUGAUGUGUGGUACUUCAGCCAACAGAGGAUUGAGCAUCA
B21: 114940117_114940237_3560_3pUTR_ENSG00000197323_ENST00000358465|human|control|control (ssRNA)
RNA: GGGAGUUCUACAGUCCGACGAUCUAAUACUGUGUAAAAGCUAUCAGCUUCUUCAAGGAGGUGCCCACUGUAGGCAGGAUAUUCCAGCAACACUUAAAAGUUUUCUGGGUUUUUUGUGUUUUUUUUUUUUUUUUCGUUUUUUUUCAACAGAGGAUUGAGCAUCA
B22: chr2:47387770:47387771:-_ENSG00000143933_ENST00000272298|hu_mus|hu_hu_hu_mus_True|1_1 (ssRNA)
RNA: GGGAGUUCUACAGUCCGACGAUCAAGGUUUAAGGACAAUGACAGUAAGAUAAGGGAAGAAAACAUGGAGGAAUGAAGUCCUAAUUACUAUACAUGCAUAUUUUUUGACAGUAGGGGGGGGGAACCUUUUACAGAUAUUACAAACAACAGAGGAUUGAGCAUCA

biological target: T1, UNK ZnF1-3 (human, UniProt Q9C0B0 31-174); experiment: nsRBNS (natural sequence RNA bind-n-seq); RBNS binding buffer (assumed for nsRBNS): 25 mM Tris pH 7.5, 150 mM KCl, 3 mM MgCl2, 0.01% Triton X-100, 500 ug/ml BSA, 20 U/ml SUPERase-In, 4 C; UNK is unkempt and MSI1 is Musashi-1; names of the RNAs are library labels; protein concentration not given here; high values mean tight binding
T1 sequence: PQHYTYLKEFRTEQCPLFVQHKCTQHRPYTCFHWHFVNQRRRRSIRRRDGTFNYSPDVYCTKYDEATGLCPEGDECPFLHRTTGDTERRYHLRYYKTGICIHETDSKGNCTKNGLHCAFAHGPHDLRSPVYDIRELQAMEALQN

| Binder | binding signal [enrichment R] |
| --- | --- |
| B1 | 0.907 |
| B2 | 0.839 |
| B3 | 1.46 |
| B4 | 0.866 |
| B5 | 1.01 |
| B6 | 0.457 |
| B7 | 0.909 |
| B8 | 1.25 |
| B9 | 1.13 |
| B10 | 0.592 |
| B11 | 0.907 |
| B12 | 0.764 |
| B13 | 0.993 |
| B14 | 0.688 |
| B15 | 0.792 |
| B16 | 1.14 |
| B17 | 1.49 |
| B18 | 0.799 |
| B19 | 0.814 |
| B20 | 1.05 |
| B21 | 0.822 |
| B22 | 2.28 |
